{"source": "patent US20070087400A1", "about": "“Covalent tethering of functional groups to proteins and substrates therefor” (priority 2004, published 2007)", "assay": "Capturing of DhaA.H272F fusions expressed in CHO-K1 cells on SA-coated beads", "details": "cells treated with biotin-C10H21NO2—Cl 25 μM, 60 minutes; Western blot", "data": [{"molecule": "DhaA.H272F-Flag: DhaA.H272F with Flag epitope at the C-terminus (protein) MSEIGTGFPFDPHYVEVLGERMHYVDVGPRDGTPVLFLHGNPTSSYLWRNIIPHVAPSHRCIAPDLIGMGKSDKPDLDYFFDDHVRYLDAFIEALGLEEVVLVIHDWGSALGFHWAKRNPERVKGIACMEFIRPIPTWDEWPEFARETFQAFRTADVGRELIIDQNAFIEGALPKCVVRPLTEVEMDHYREPFLKPVDREPLWRFPNELPIAGEPANIVALVEAYMNWLHQSPVPKLLFWGTPGVLIPPAEAARLAESLPNCKTVDIGPGLFYLQEDNPDLIGSEIARWLPALTGDYKDDDDK", "values": [{"measurement": "fraction of expressed protein captured on SA-coated beads", "value": "more than 50%"}]}]}
